Assay results: the supplement of paper PMC3724861
The list shows a part of the results.

These sequences were tested on T1, Caupolican (Caup) homeodomain DNA-binding domain (assay: PBM E-score (8-mer, recovered from the published 9-mer minima) (E-score (dimensionless, -0.5 to 0.5)); Drosophila protein; higher = stronger relative binding preference, active = 0.31 or more).
T1 sequence: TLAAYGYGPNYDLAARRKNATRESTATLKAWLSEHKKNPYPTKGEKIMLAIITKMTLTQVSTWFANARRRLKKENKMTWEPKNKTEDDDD
How it was run: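 Caup's homeodomain DNA-binding domain (residues 214-303) was produced by in vitro transcription and translation and applied at 100 nM to custom-designed protein binding microarrays. Each value is an enrichment score giving relative binding preference for a short DNA word; higher means stronger. Published 9-mer scores were the minimum of their two constituent 8-mer scores, and the 8-mer values were recovered from those minima. A cutoff of 0.31 marks candidate binding sequences.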

PBM E-score, ≥ 0.123:
CAAACCAG

PBM E-score, ≥ 0.13:
ATATACCG

PBM E-score, active:
CAAACACG 0.315
TACAAGGA 0.352
ATGTAATA 0.383
AGTGACAT 0.354
AACACGTA 0.316
CGTGTATA 0.321
TCGTGTAA 0.363

PBM E-score, ≥ 0.016:
CGAGCTTC

PBM E-score, ≥ 0.0454:
ACGAACCA

PBM E-score, inactive:
TGCGCTAA 0.0295
GACTAGAC 0.0168
CAGCCCGC -0.267
ACGTGCAA 0.0387
GTTACGAA 0.107
GAAACCAC -0.00015
CTTCACCC -0.173
AAATTCTT 0.0211
GGCTCCTA -0.245
AATCCGGT -0.0128
CGATGGCG -0.208
CAGGGGAC -0.193
ACCTCCCG -0.142
AACGTCGC -0.122
AAGCCGGA -0.0668
CTTGAACA 0.201
CAAGAGCC -0.115
GCGGACCA -0.0889
TTGAGAAA 0.0975
CTGTAAGC 0.0746
CTGTGGAA -0.00671
CAAGATCG 0.0516
GGTGCATA -0.0382
GCTAATCC -0.0113
CACTGGGC -0.0963
CGCAGCTA -0.18
AGTACACC 0.265
CTTTCACC -0.0159
TAATGCGA 0.0601
ACAGCTTG 0.148
ACTCCACT -0.0287
CTGCCAGA -0.151
CCACTCTA -0.0132
GACACTCA 0.0949
AATTTTCA 0.102
ACCGTCCG -0.169
CTGCTGGC -0.302
AAATATTT 0.108
CACACCGG -0.087
CACACGCA 0.0417
CAGTCACG -0.038
CCTTATAC -0.0299
CCTGGTAG -0.0715
GGTAACAC 0.242
CAGTGGTC -0.0613
CCGGTGCG -0.209
GGTCCTGA -0.121
CCCGAACC -0.272
CCTAAGCC -0.224
CCTCAATA -0.07
TCCAAAGA 0.0351
CTACTGAG -0.0698
ATTACTGA 0.142
ACGCACCG -0.0637
CGTTGCGA -0.0352
ATGACCTG 0.0807
AAGAAAAA 0.0173
GCGCTGAA -0.198
GGCGTCTA -0.168
TTAGACAA 0.206
GGTTGTGA 0.0824
GGACTACC -0.0469
ACGCCCAC -0.052
AAGATGTG 0.146
AGGTGTAC 0.225
AGTTCCAT 0.0606
TATCGTGA 0.0294
AAACACCT 0.171
GAGTACCA 0.165
AGGCATTC -0.139
ACATCTCG 0.155
CCTGCTAG -0.0884
AAGGATGC -0.0916
ATCACTAA 0.0875
CCCGCCCC -0.229
CCATGCGA -0.0437
AAGAATCC -0.0535
CTGATCGC 0.0632
ATGCGGTC 0.0131
AATGAGTG 0.0777
GAAGCGCC -0.182
TAATATAA 0.23
ACTATGCA 0.109
TAGCTTAA 0.0299
GACGCAAA -0.0983
GCTGACTA -0.102
GCCTATGA -0.0331
ACCATCTA -0.0183
AGTTCAAG 0.0481
CCATACTC -0.068
CATTTGCA 0.0904
AAGTTGAA -0.0125
AGAACCTA 0.0236
ATGTCTCG 0.173
AGCGCGCA -0.06
AATCCCTC -0.119
ACTATAGA 0.097
ACCCCTGG -0.225
CCATACAG 0.0994
AATTGAAC 0.0648
GAGCCCCA -0.243
AGCGGCAA -0.0866
ACCACCGG -0.198
CACCACTC -0.0668
CAGCAAGC -0.0215
ACTCACTC -0.0448
GTCACGCA 0.0083
GGTAAACC -0.0609
AATCCAAT 0.0568
GCCATAAA -8e-05
CCCAAGAA -0.0904
GTTATAAC 0.0998
ATAACTCG 0.0819
AACAGAGT 0.116
GTACGTAA 0.182
AATGCGAA -0.00501
GATGGATA 0.00149
TAAGGCGA -0.0793
ACCTTACT 0.0186
CGCGTTCC -0.0957
ATTCGACC -0.0381
TGTAATAA 0.276
CTGATGAA 0.019
AACCTGTC 0.162
ATAGCTCG -0.0531
CTACCAGA 0.0647
ACGACACA 0.26
ATAGCCAT 0.0738
AGTTGGGA -0.064
GAGTGAGA -0.0286
CGCAGCCA -0.176
CGCCGAAC -0.111
GTTTGCGA 0.148
ATGCGTAC 0.154
TCACAAGA 0.131
GCAGTGCC -0.267
ATATGTCA 0.305
CAAGGTGA 0.0664
ATAACCGA -0.00209
TGGAACCA 0.0106
CGGCAGAA -0.215
GGTCACGA 0.0132
CCATTTGC -0.0285
GCATCTGA -0.0536
CAGCGAGG -0.199
AAACGATT 0.0852
CAAGTAAG 0.0621
GCCTATAC -0.0758
AGATTCCT -0.0236
GAGCGCTA -0.152
GCCAGGAA -0.0742
CAAAGCTC -0.162
CCAAACAG 0.0978
GAGTAGAC 0.0351
AACGTAGG -0.119
GACCGTCC -0.258
CCATAGAC -0.0106
GTTATCCA 0.0936
CCAGTTAA 0.0936
AATTCATA 0.0488
ACCGAGAA -0.027
CTCCTAAC 0.0612
CTGTTTAC 0.17
ACTCTGCC -0.111
AAAAGACA 0.184
ACGCACTG -0.0886
GAAGCATA 0.0668
GCTATTTA 0.187
ATGACGGA 0.0204
ACAGCAGG 0.0384
CATGGAAA 0.148
AATCATCA 0.161
CCCATTAA 0.0805
CCACGCGG -0.268
GAGTGGGA -0.0746
ATAGCGCA -0.0213
TACGATCA 0.0958
GCGCAAGA -0.0905
ACAATCAT 0.204
ATGTCTTG 0.237
AAGCGAAG -0.104
AGTGAATG 0.0689
CTCTGAGA -0.109
GACTCTTA 0.0374
CCCTGAAC 0.132
GAGCTAGA -0.156
AACAAAAG 0.122
CATCCAGC -0.0387
CCATGGCC -0.247
AGGCGTCC -0.139
GGCGGAAC -0.1
AGACCTAT 0.0768
CCTATTGA 0.0195
AAGGCCAA -0.213
AACATCAT 0.292
AAGCCCAT -0.0824
CTGCCTTC -0.202
GCTCACCC -0.215
CTTACTAA 0.135
GATGAGAC -0.0355
CGGGTCAG -0.135
CGCGAAAG -0.127
AGTCATCG -0.0399
ACTAACCC 0.0323
GACGGAGA -0.0597
ATTGCCCA -0.0369
CTGAGAAG -0.128
CCTACACC 0.0683
GCCTTAGA -0.125
CATATGGA 0.0301
CGCCTATA -0.118
